Assay results from US20240043567A1 (published 2024).

Biological target: QP3732 (Her2M2-Fc)
Test: ELISA

- EC50: 0.122 µg/mL
B1: QP34563457 (bispecific antibody)
chain 1: [skipping about 100 residues]GGGGSGGGGSGGGGS[skipping about 120 residues]
chain 2: [skipping about 120 residues]GGGGSGGGGSGGGGSITCPPPMSVEHADIWVKSYSLYSRERYICNSGFKRKAGTCSLTECVLNKATNVAHWTTPSLKCIRGGGGS[skipping human IgG1 Fc with changes]
light: DIQMTQSPSSLSASVGDRVTITCKASQDVSIGVAWYQQKPGKAPKLLIYSASYRYTGVPSRFSGSGSGTDFTLTISSLQPEDFATYYCQQYYIYPYTFGQGTKVEIKRTVAAPSVFIFPPSDEQLKSGTASVVCLLNNFYPREAKVQWKVDNALQSGNSQESVTEQDSKDSTYSLSSTLTLSKADYEKHKVYACEVTHQGLSSPVTKSFNRGEC
heavy: EVQLVESGGGLVQPGGSLRLSCAASGFTFTDYTMDWVRQAPGKGLEWVADVNPNSGGSIYNQRFKGRFTLSVDRSKNTLYLQMNSLRAEDTAVYYCARNLGPSFYFDYWGQGTLVTVSSASTKGPSVFPLAPSSKSTSGGTAALGCLVKDYFPEPVTVSWNSGALTSGVHTFPAVLQSSGLYSLSSVVTVPSSSLGTQTYICNVNHKPSNTKVDKKV[skipping human IgG1 Fc with T366S L368A Y407V H435R (EU numbers)]
